Laboratory results taken from publication PMC9911399, “Two distinct binding modes provide the RNA-binding protein RbFox with extraordinary sequence specificity”.
Positions count from the first letter of the chain named. The list shows a part of the results.

T1: RBFOX1 RRM (Homo sapiens, UniProt Q9NWB1 109-208)
T1 sequence: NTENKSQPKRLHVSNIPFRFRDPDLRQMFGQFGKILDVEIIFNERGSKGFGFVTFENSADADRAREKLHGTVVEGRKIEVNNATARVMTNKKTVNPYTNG

B1: AGAGUUG (DNA:RNA)
RNA: GGGAGACCGGAAUUCAGAUUGUCCAGAGUUGUUAAAUCCCGUCGUAGCCACCA
DNA 1: CAATCTGAATTCCGGTCTCCC
DNA 2: TGGTGGCTACGACGGGATT
B2: CGAGCGC (DNA:RNA)
RNA: B1 RNA with A25C, U29C, U30G, G31C
DNA 1: CAATCTGAATTCCGGTCTCCC
DNA 2: TGGTGGCTACGACGGGATT
B3: GCAGCCG (DNA:RNA)
RNA: B1 RNA with A25G, G26C, U29C, U30C
DNA 1: CAATCTGAATTCCGGTCTCCC
DNA 2: TGGTGGCTACGACGGGATT
B4: GUAUGUC (DNA:RNA)
RNA: B1 RNA with A25G, G26U, G28U, U29G, G31C
DNA 1: CAATCTGAATTCCGGTCTCCC
DNA 2: TGGTGGCTACGACGGGATT
B5: AUAGUUU (DNA:RNA)
RNA: B1 RNA with G26U, G31U
DNA 1: CAATCTGAATTCCGGTCTCCC
DNA 2: TGGTGGCTACGACGGGATT
B6: AGAUCGU (DNA:RNA)
RNA: B1 RNA with G28U, U29C, U30G, G31U
DNA 1: CAATCTGAATTCCGGTCTCCC
DNA 2: TGGTGGCTACGACGGGATT
B7: AAAGAUA (DNA:RNA)
RNA: B1 RNA with G26A, U29A, G31A
DNA 1: CAATCTGAATTCCGGTCTCCC
DNA 2: TGGTGGCTACGACGGGATT
B8: UUCGCGG (DNA:RNA)
RNA: B1 RNA with A25U, G26U, A27C, U29C, U30G
DNA 1: CAATCTGAATTCCGGTCTCCC
DNA 2: TGGTGGCTACGACGGGATT
B9: AUCACAA (DNA:RNA)
RNA: B1 RNA with G26U, A27C, G28A, U29C, U30A, G31A
DNA 1: CAATCTGAATTCCGGTCTCCC
DNA 2: TGGTGGCTACGACGGGATT
B10: CUUCUAU (DNA:RNA)
RNA: B1 RNA with A25C, G26U, A27U, G28C, U30A, G31U
DNA 1: CAATCTGAATTCCGGTCTCCC
DNA 2: TGGTGGCTACGACGGGATT
B11: AUUUGCA (DNA:RNA)
RNA: B1 RNA with G26U, A27U, G28U, U29G, U30C, G31A
DNA 1: CAATCTGAATTCCGGTCTCCC
DNA 2: TGGTGGCTACGACGGGATT
B12: UCUGUAU (DNA:RNA)
RNA: B1 RNA with A25U, G26C, A27U, U30A, G31U
DNA 1: CAATCTGAATTCCGGTCTCCC
DNA 2: TGGTGGCTACGACGGGATT
B13: GAGCUGA (DNA:RNA)
RNA: B1 RNA with A25G, G26A, A27G, G28C, U30G, G31A
DNA 1: CAATCTGAATTCCGGTCTCCC
DNA 2: TGGTGGCTACGACGGGATT
B14: UUACGUC (DNA:RNA)
RNA: B1 RNA with A25U, G26U, G28C, U29G, G31C
DNA 1: CAATCTGAATTCCGGTCTCCC
DNA 2: TGGTGGCTACGACGGGATT
B15: UCUUUAA (DNA:RNA)
RNA: B1 RNA with A25U, G26C, A27U, G28U, U30A, G31A
DNA 1: CAATCTGAATTCCGGTCTCCC
DNA 2: TGGTGGCTACGACGGGATT
B16: GCUCAGA (DNA:RNA)
RNA: GGGAGACCGGAAUUCAGAUUGUCCGCUCAGAUUAAAUCCCGUCGUAGCCACCA
DNA 1: CAATCTGAATTCCGGTCTCCC
DNA 2: TGGTGGCTACGACGGGATT
B17: ACCCCCU (DNA:RNA)
RNA: B16 RNA with G25A, U27C, A29C, G30C, A31U
DNA 1: CAATCTGAATTCCGGTCTCCC
DNA 2: TGGTGGCTACGACGGGATT
B18: GGUUGUG (DNA:RNA)
RNA: B1 RNA with A25G, A27U, G28U, U29G
DNA 1: CAATCTGAATTCCGGTCTCCC
DNA 2: TGGTGGCTACGACGGGATT
B19: GACCACU (DNA:RNA)
RNA: B16 RNA with C26A, U27C, G30C, A31U
DNA 1: CAATCTGAATTCCGGTCTCCC
DNA 2: TGGTGGCTACGACGGGATT
B20: GCCACGA (DNA:RNA)
RNA: B16 RNA with U27C, C28A, A29C
DNA 1: CAATCTGAATTCCGGTCTCCC
DNA 2: TGGTGGCTACGACGGGATT
B21: AAAAAAG (DNA:RNA)
RNA: B1 RNA with G26A, G28A, U29A, U30A
DNA 1: CAATCTGAATTCCGGTCTCCC
DNA 2: TGGTGGCTACGACGGGATT
B22: CAUCUGC (DNA:RNA)
RNA: B16 RNA with G25C, C26A, A29U, A31C
DNA 1: CAATCTGAATTCCGGTCTCCC
DNA 2: TGGTGGCTACGACGGGATT
B23: UUGUCCG (DNA:RNA)
RNA: B1 RNA with A25U, G26U, A27G, G28U, U29C, U30C
DNA 1: CAATCTGAATTCCGGTCTCCC
DNA 2: TGGTGGCTACGACGGGATT
B24: AACAGCC (DNA:RNA)
RNA: B1 RNA with G26A, A27C, G28A, U29G, U30C, G31C
DNA 1: CAATCTGAATTCCGGTCTCCC
DNA 2: TGGTGGCTACGACGGGATT
B25: GAGUCAC (DNA:RNA)
RNA: B16 RNA with C26A, U27G, C28U, A29C, G30A, A31C
DNA 1: CAATCTGAATTCCGGTCTCCC
DNA 2: TGGTGGCTACGACGGGATT
B26: UUAGCGU (DNA:RNA)
RNA: B1 RNA with A25U, G26U, U29C, U30G, G31U
DNA 1: CAATCTGAATTCCGGTCTCCC
DNA 2: TGGTGGCTACGACGGGATT
B27: UGUAUUA (DNA:RNA)
RNA: B1 RNA with A25U, A27U, G28A, G31A
DNA 1: CAATCTGAATTCCGGTCTCCC
DNA 2: TGGTGGCTACGACGGGATT
B28: AGUUGUA (DNA:RNA)
RNA: B1 RNA with A27U, G28U, U29G, G31A
DNA 1: CAATCTGAATTCCGGTCTCCC
DNA 2: TGGTGGCTACGACGGGATT
B29: AUCGGGG (DNA:RNA)
RNA: B1 RNA with G26U, A27C, U29G, U30G
DNA 1: CAATCTGAATTCCGGTCTCCC
DNA 2: TGGTGGCTACGACGGGATT
B30: AACAGUA (DNA:RNA)
RNA: B1 RNA with G26A, A27C, G28A, U29G, G31A
DNA 1: CAATCTGAATTCCGGTCTCCC
DNA 2: TGGTGGCTACGACGGGATT
B31: ACAGCAG (DNA:RNA)
RNA: B1 RNA with G26C, U29C, U30A
DNA 1: CAATCTGAATTCCGGTCTCCC
DNA 2: TGGTGGCTACGACGGGATT

Target: T1, RBFOX1 RRM
Experiment: EMSA; HiTS-Eq, 1 nM pool, 10 min; buffer printed only for the single-RNA assays: 10 mM Tris pH 7.5, 150 mM NaCl, 3.4 mM EDTA, 0.001% NP-40, 30 C
Settings: tags: His6 N-terminal (pET28a); label: 5' 32P
Outline: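 Relative association constants, normalised to the cognate motif, were derived by comparing read counts of each RNA species with those of the control reaction. The RNA sequenced was the free fraction, separated by 8% native PAGE after a 10 min equilibration in 50 µL of 1 nM 5′-radiolabelled RNA (7 randomized nucleotides) with increasing concentrations of purified wild-type or mutant RbFox RRM.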

| Binder | binding signal |
| --- | --- |
| B1 | 0.0122 KA relative to UGCAUGU |
| B2 | 0.0134 KA relative to UGCAUGU |
| B3 | 0.0143 KA relative to UGCAUGU |
| B4 | 0.0124 KA relative to UGCAUGU |
| B5 | 0.00379 KA relative to UGCAUGU |
| B6 | 0.0126 KA relative to UGCAUGU |
| B7 | 0.00121 KA relative to UGCAUGU |
| B8 | 0.00875 KA relative to UGCAUGU |
| B9 | 0.00119 KA relative to UGCAUGU |
| B10 | 0.00211 KA relative to UGCAUGU |
| B11 | 0.0153 KA relative to UGCAUGU |
| B12 | 0.0123 KA relative to UGCAUGU |
| B13 | 0.0196 KA relative to UGCAUGU |
| B14 | 0.00945 KA relative to UGCAUGU |
| B15 | 0.00894 KA relative to UGCAUGU |
| B16 | 0.0132 KA relative to UGCAUGU |

| Binder | binding signal |
| --- | --- |
| B17 | 0.00197 KA relative to UGCAUGU |
| B18 | 0.0164 KA relative to UGCAUGU |
| B19 | 0.00545 KA relative to UGCAUGU |
| B20 | 0.0105 KA relative to UGCAUGU |
| B21 | 0.00105 KA relative to UGCAUGU |
| B22 | 0.00886 KA relative to UGCAUGU |
| B23 | 0.0163 KA relative to UGCAUGU |
| B24 | 0.00359 KA relative to UGCAUGU |
| B25 | 0.0121 KA relative to UGCAUGU |
| B26 | 0.0154 KA relative to UGCAUGU |
| B27 | 0.00643 KA relative to UGCAUGU |
| B28 | 0.0101 KA relative to UGCAUGU |
| B29 | 0.00735 KA relative to UGCAUGU |
| B30 | 0.00245 KA relative to UGCAUGU |
| B31 | 0.00511 KA relative to UGCAUGU |
